Measurements as given in article PMC7819943, “Rice protein-binding microarrays: a tool to detect cis-acting elements near promoter regions in rice”.
Some of the results follow.

Molecular target: T1, OsWOX13 (Oryza sativa, UniProt Q5QMM3 1-267)
T1 sequence: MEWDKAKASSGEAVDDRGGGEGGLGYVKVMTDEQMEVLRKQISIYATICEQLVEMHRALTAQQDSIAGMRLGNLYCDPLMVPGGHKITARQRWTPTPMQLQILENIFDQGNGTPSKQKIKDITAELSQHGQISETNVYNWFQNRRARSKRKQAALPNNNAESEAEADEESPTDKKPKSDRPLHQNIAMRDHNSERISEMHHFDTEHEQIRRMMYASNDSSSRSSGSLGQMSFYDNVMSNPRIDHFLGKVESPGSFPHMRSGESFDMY
Assay: protein-binding microarray (RPBM); PBS, 2% BSA, 51.3 ng/ul salmon testes DNA, 50 uM zinc acetate, 200 nM TF, 25 C, 1 h; high values mean tight binding
Conditions: protein: recombinant; tags: N-terminal polyhistidine and DsRed monomer fusion (pET32a); label: CyDye5-dUTP incorporated in the synthesized complementary strand; 3' TTTTT single-stranded linker to array surface; dsDNA, one strand shown
Procedure, shortened: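 The binding signal for each feature is its fluorescence intensity in arbitrary units. An Axon 4000B scanner was used to read a custom Agilent array that had been made double-stranded with Cy5-dUTP primer extension, blocked with 2% BSA, incubated at 25 °C for 1 h with 200 nM protein in PBS, 2% BSA, salmon testes DNA and 50 µM zinc acetate, and washed. The protein was an N-terminal polyhistidine–DsRed transcription factor fusion from E. coli BL21-CodonPlus, purified on Ni–NTA.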

Sequence | binding signal
TTCGGTAATTTCAGCATTACACGTTGCTGAATAATTTTGACGGAGTCACCTAGTGCAG | 4300 fluorescence intensity (a.u.)
GGGTCAATCCCTCAGGAGATTGGAAATCTTGTGAATCTCCCGGAGTCACCTAGTGCAG | 10700 fluorescence intensity (a.u.)
ATTAGTGTCTAAACATATGATTTGATGGCAACTAAGGGCTCGGAGTCACCTAGTGCAG | 7620 fluorescence intensity (a.u.)
GTAATTACAGCTCATGATTTTCTCTCTCTCTCTCTCTCTACGGAGTCACCTAGTGCAG | 20000 fluorescence intensity (a.u.)
AGGGTCTCTCTCAAATTAGCACTAATTCAAACCAACGGAACGGAGTCACCTAGTGCAG | 3180 fluorescence intensity (a.u.)
TATTTATAATTGGTATCAAACATCTGATATGATAGGGACTCGGAGTCACCTAGTGCAG | 35700 fluorescence intensity (a.u.)
AATAGTTGATAGCAACAGTCAAGATTGTGCATTGAGGTCACGGAGTCACCTAGTGCAG | 7500 fluorescence intensity (a.u.)
CTCTAACGAAAGGTTGGTCAAGATACGGAAACGGGAGAGGCGGAGTCACCTAGTGCAG | 5100 fluorescence intensity (a.u.)
AACTGTTTAAATTACATGCATAGGTGATATGGCACTTAGGCGGAGTCACCTAGTGCAG | 3660 fluorescence intensity (a.u.)
CTAAACAAAATTTAAGATGTGAAAATATCATCTCTCCAAGCGGAGTCACCTAGTGCAG | 11000 fluorescence intensity (a.u.)
GTCATCATTGATTGATATGATTTTGTATGTGTGAGCAATGCGGAGTCACCTAGTGCAG | 59400 fluorescence intensity (a.u.)
TCAATGATTTTGTGCAACATCCCAAATAAACTAGAACTAACGGAGTCACCTAGTGCAG | 5420 fluorescence intensity (a.u.)
CTAATTATCGTAATCGCTAATTTAAATCCATGCATTTGGGCGGAGTCACCTAGTGCAG | 16700 fluorescence intensity (a.u.)
TATGATTGATTGGAGGGATCAATTAATTACTCATTCTCCACGGAGTCACCTAGTGCAG | 64700 fluorescence intensity (a.u.)
GGCTGAATTGCAAATCATATGCGTTTGAGAGGATTAGGTACGGAGTCACCTAGTGCAG | 14200 fluorescence intensity (a.u.)
CTGTAAATTTCGTTGACGGCCGTCGCCCGAGAGCGAACGGCGGAGTCACCTAGTGCAG | 5000 fluorescence intensity (a.u.)
GTCAATAGCAATCAAGACGGACGGAAAACAATGTGGACTTCGGAGTCACCTAGTGCAG | 10800 fluorescence intensity (a.u.)
AAGTAATTGGAAGATGTATTTTAATAAGAGTTCAAATAGACGGAGTCACCTAGTGCAG | 16500 fluorescence intensity (a.u.)
TCATTTGACTCACTAATTTCCGAATTGGTACTGTCTAACACGGAGTCACCTAGTGCAG | 5610 fluorescence intensity (a.u.)
TTGCCTTTATTTCTCGTTGATTGCAGGATCAAATCAACTGCGGAGTCACCTAGTGCAG | 18100 fluorescence intensity (a.u.)
GAAAACAGAAACAACTTAATTTGTTGCTCTACCAATTGTTCGGAGTCACCTAGTGCAG | 11600 fluorescence intensity (a.u.)

Sequence | binding signal
CTTGATGGTAATCATGGTATCTTGTGATGGTACCTGTCCACGGAGTCACCTAGTGCAG | 22400 fluorescence intensity (a.u.)
TATTACTAAGTGATTGTTTACAAGTTCGAGCGGACGGGCACGGAGTCACCTAGTGCAG | 3800 fluorescence intensity (a.u.)
AAGTAGCGTTTAATGCATAATTAATTAAGTACTCCCTCCACGGAGTCACCTAGTGCAG | 4200 fluorescence intensity (a.u.)
AATTCGCATGATTGTTTTCGTTTTGTTGGTCAGTGAATGACGGAGTCACCTAGTGCAG | 15800 fluorescence intensity (a.u.)
CTGATGATTGGTCAGCAGAGAAGACAGGTGGGATATCGAGCGGAGTCACCTAGTGCAG | 52900 fluorescence intensity (a.u.)
CAATAATTTAGGGAGTCGTCCTATCCGGTTTTACAGTTAACGGAGTCACCTAGTGCAG | 8720 fluorescence intensity (a.u.)
TCAAGCTGCTAATCAATTGATATCAACTATATTATGGAAACGGAGTCACCTAGTGCAG | 14600 fluorescence intensity (a.u.)
AATGATCAATATTGGCACGATGACTGTGTTTATTTCCTTTCGGAGTCACCTAGTGCAG | 3770 fluorescence intensity (a.u.)
ATTATTTAAATTATTTGAATAAGACGAATGATCAAACACGCGGAGTCACCTAGTGCAG | 16600 fluorescence intensity (a.u.)
CTCAGATACCTGATTTAAAACAGAGTAAACCAAGTGGATGCGGAGTCACCTAGTGCAG | 3610 fluorescence intensity (a.u.)
AGAAGGTAAATTGATTCGGTTTTCATAGTTGAAGGAACCTCGGAGTCACCTAGTGCAG | 16500 fluorescence intensity (a.u.)
TTTAAAATTGAAGTTATCACAAAACTATATCTTTTAGAGTCGGAGTCACCTAGTGCAG | 10800 fluorescence intensity (a.u.)
CTGGATCAGATTAGACGAGCAGATTAGATTACGTGGAGTCCGGAGTCACCTAGTGCAG | 13300 fluorescence intensity (a.u.)
CGCCGAGGGGAGGGGAGGGGAGGTTGCCATTGTTGTCCATCGGAGTCACCTAGTGCAG | 4420 fluorescence intensity (a.u.)
ATGAACAATGACAGATTATGATTTATGCAACGAAAACCTGCGGAGTCACCTAGTGCAG | 13800 fluorescence intensity (a.u.)
ATGCTGTGTTTATTGGATTGATGTGATATAATGTTCATTTCGGAGTCACCTAGTGCAG | 6110 fluorescence intensity (a.u.)
ATGAGACATGATCATCAATTAATACATGTGCTGATCATCTCGGAGTCACCTAGTGCAG | 27900 fluorescence intensity (a.u.)
CTATTTAAATGACATATAACCAATGAGAAAACATCCCCTCCGGAGTCACCTAGTGCAG | 3870 fluorescence intensity (a.u.)
TTCATTTATAGCCAATCTAATAGCCAATTCATACCATAGTCGGAGTCACCTAGTGCAG | 8130 fluorescence intensity (a.u.)
AGAAGATTAAATTACCAATCATTTCAGAATCATGACGCATCGGAGTCACCTAGTGCAG | 45700 fluorescence intensity (a.u.)
TAAATTAACTAGTTCATGAGGACTACAGCAAGTAGGTAGCCGGAGTCACCTAGTGCAG | 5400 fluorescence intensity (a.u.)
